Over roughly 81,000 sequences, “one-hybrid fitness for binding NBS DNA” has its median near -0.1; the highest 2% begin near 0.36. Some of the results follow.
B1: Caulobacter ParB omega fusion; a variant is named by its letters at X, in order, B8GW30 (parent)
chain: MESVVVGEPGMSEGRRGLGRGLSALLGEVDAAPAQAPGEQLGGSREAPIEILQRNPDQPRRTFREEDLEDLSNSIREKGVLQPILVRPSPDTAGEYQIVAGERAWRAAQRAGLKTVPIMVRELDDLAVLEIGIIENVQRADLNVLEEALSYKVLMEKFERTQENIAQTIGKSXSHVANXMRLLXLPDEVQSYLVSGELTAXHARAIAAAADPVALAKQIIEGGLSVRETEALARKAPNLSAGKSKGGRPPRVKDTDTQALESDLSSVLGLDVSIDHRGSTGTLTITYATLEQLDDLCNRLTRGI

Variants of: B1
Assay: one-hybrid fitness for binding NBS DNA (the Noc-binding site; scaled: cognate 1, non-cognate 0); higher = stronger binding
Conditions: with NBS DNA site
In short: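 Bacterial one-hybrid selection in E. coli USO rpoZ- hisB- pyrF- with a HIS3 reporter carrying the site 19 bp from the promoter, screening Caulobacter ParB libraries with four specificity codons randomised (NNS). Cells grew 48 hours at 37°C on M9-minus-histidine plus 0.1 mM IPTG and 5 mM 3-AT. Plasmids before and after selection were Illumina-sequenced, three replicate libraries pooled, and variants under 10 reads dropped. Fitness is the log change in variant-to-wild-type read ratio, rescaled to cognate 1, non-cognate 0.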

Variant | one-hybrid fitness for binding NBS DNA
SKTN | ≤ 0.2
TESI | ≤ 0.2
VSHD | ≤ 0.2
VADY | ≤ 0.2
HAPG | ≤ 0.2
QRHN | 0.437
WGYT | ≤ 0.2
ERYS | ≤ 0.2
FLLR | ≤ 0.2
VGGC | ≤ 0.2
PYGC | ≤ 0.2
HGGS | ≤ 0.2
HKMN | ≤ 0.2
CFGG | ≤ 0.2
FKEG | ≤ 0.2
ANHR | ≤ 0.2
SDAS | ≤ 0.2
RDNY | ≤ 0.2
VMYN | ≤ 0.2
DFAH | ≤ 0.2
NQFG | ≤ 0.2
QRKK | 0.777
EPTF | ≤ 0.2
ERQT | ≤ 0.2

Variant | one-hybrid fitness for binding NBS DNA
ATNF | ≤ 0.2
RTNE | ≤ 0.2
NGPF | ≤ 0.2
WPFW | ≤ 0.2
RHSN | ≤ 0.2
SSRF | ≤ 0.2
QDGM | ≤ 0.2
IGTI | ≤ 0.2
GIMG | ≤ 0.2
MFKL | ≤ 0.2
LQTW | ≤ 0.2
PNNF | ≤ 0.2
QQCE | ≤ 0.2
TWPL | ≤ 0.2
QHNS | 0.419
SDKG | ≤ 0.2
VTRT | ≤ 0.2
NIRR | ≤ 0.2
NEVG | ≤ 0.2
PCPV | ≤ 0.2
HSGG | ≤ 0.2
KFQR | ≤ 0.2
DTRG | ≤ 0.2
QSMA | ≤ 0.2

Variant | one-hybrid fitness for binding NBS DNA
PTHS | ≤ 0.2
RPSI | ≤ 0.2
ASQG | ≤ 0.2
WTAL | ≤ 0.2
RCML | ≤ 0.2
LDKC | ≤ 0.2
NDSV | ≤ 0.2
QNPD | ≤ 0.2
THVY | ≤ 0.2
QHHK | ≤ 0.2
SQHV | ≤ 0.2
TAAT | ≤ 0.2
TRLV | ≤ 0.2
RVIG | ≤ 0.2
EAFS | ≤ 0.2
AVTK | ≤ 0.2
MACE | ≤ 0.2
WRFS | ≤ 0.2
QIRT | 0.608
FFVR | ≤ 0.2
SQML | ≤ 0.2
KLGV | ≤ 0.2
NARG | ≤ 0.2
HATA | ≤ 0.2

Variant | one-hybrid fitness for binding NBS DNA
VNSV | ≤ 0.2
MTMC | ≤ 0.2
ADQG | ≤ 0.2
KGRG | ≤ 0.2
ILCT | ≤ 0.2
RAQS | 0.416
RIYD | ≤ 0.2
YELC | ≤ 0.2
NCSI | ≤ 0.2
RVRP | ≤ 0.2
LTTN | ≤ 0.2
APMS | ≤ 0.2
HVAN | ≤ 0.2
IDNS | ≤ 0.2
THRF | ≤ 0.2
ATQD | ≤ 0.2
QGLI | ≤ 0.2
HQSG | ≤ 0.2
HCMG | ≤ 0.2
QMNN | ≤ 0.2
RTTN | ≤ 0.2
IGPI | ≤ 0.2
KPCN | ≤ 0.2
VGKA | ≤ 0.2

Variant | one-hybrid fitness for binding NBS DNA
QCGE | ≤ 0.2
LLCC | ≤ 0.2
AFIS | ≤ 0.2
LSVF | ≤ 0.2
DYLF | ≤ 0.2
NYLA | ≤ 0.2
GWPR | ≤ 0.2
YDVG | ≤ 0.2
DHLC | ≤ 0.2
KACM | ≤ 0.2
GTYS | ≤ 0.2
TETN | ≤ 0.2
DQQE | ≤ 0.2
WHSE | ≤ 0.2
QMAN | ≤ 0.2
CDRP | ≤ 0.2
LASF | ≤ 0.2
HGEK | ≤ 0.2
DFNV | ≤ 0.2
AARQ | ≤ 0.2
LNRE | ≤ 0.2
EAPV | ≤ 0.2
QAYL | ≤ 0.2
AGNI | ≤ 0.2

Variant | one-hybrid fitness for binding NBS DNA
NHMS | ≤ 0.2
HDMA | ≤ 0.2
YKET | ≤ 0.2
VLWY | ≤ 0.2
HYRF | ≤ 0.2
LKQN | ≤ 0.2
TTAR | ≤ 0.2
LNGE | ≤ 0.2
QADV | ≤ 0.2
KQHF | ≤ 0.2
PSML | ≤ 0.2
RHCN | ≤ 0.2
HLYL | ≤ 0.2
RWNK | ≤ 0.2
RFPD | ≤ 0.2
CEMW | ≤ 0.2
ESIR | ≤ 0.2
ANIL | ≤ 0.2
RWCK | ≤ 0.2
TPIN | ≤ 0.2
QFQS | ≤ 0.2
VYLG | ≤ 0.2
CKQG | ≤ 0.2
QFRN | ≤ 0.2

Variant | one-hybrid fitness for binding NBS DNA
RCGP | ≤ 0.2
TQGE | ≤ 0.2
YADS | ≤ 0.2
ALET | ≤ 0.2
QINV | ≤ 0.2
PDQF | ≤ 0.2
GAYW | ≤ 0.2
VPIL | ≤ 0.2
KPDL | ≤ 0.2
HAFV | ≤ 0.2
TNFG | ≤ 0.2
IMIR | ≤ 0.2
GFPG | ≤ 0.2
DNVT | ≤ 0.2
HFQF | ≤ 0.2
KRHL | ≤ 0.2
REKL | ≤ 0.2
PCYY | ≤ 0.2
TVDH | ≤ 0.2
TMEL | ≤ 0.2
LAFT | ≤ 0.2
NNRY | ≤ 0.2
RGED | ≤ 0.2
LYFI | ≤ 0.2

Variant | one-hybrid fitness for binding NBS DNA
SFMV | ≤ 0.2
RPVD | ≤ 0.2
QRSV | 0.388
PSTR | ≤ 0.2
FYMR | ≤ 0.2
FEGS | ≤ 0.2
ARTL | ≤ 0.2
ELET | ≤ 0.2
AHEV | ≤ 0.2
LVTG | ≤ 0.2
RLWG | ≤ 0.2
QTSR | 0.786
RHML | ≤ 0.2
PNMT | ≤ 0.2
WGRR | ≤ 0.2
CPRW | ≤ 0.2
LTET | ≤ 0.2
GYVG | ≤ 0.2
TLKE | ≤ 0.2
RAEA | ≤ 0.2
NMGS | ≤ 0.2
QTNE | 0.222
MVRP | ≤ 0.2
KNTP | ≤ 0.2

Variant | one-hybrid fitness for binding NBS DNA
VETE | ≤ 0.2
FPSR | ≤ 0.2
QQAT | 0.482
GDAW | ≤ 0.2
KLFY | ≤ 0.2
NARQ | ≤ 0.2
VAQC | ≤ 0.2
RGHL | ≤ 0.2
QQGW | ≤ 0.2
HWAR | ≤ 0.2
DNHL | ≤ 0.2
QIYM | ≤ 0.2
LVRA | ≤ 0.2
PELT | ≤ 0.2
TPGK | ≤ 0.2
HQSE | ≤ 0.2
RADE | ≤ 0.2
LCLT | ≤ 0.2
LVVR | ≤ 0.2
IIMW | ≤ 0.2
LVID | ≤ 0.2
QAST | 0.395
HEMR | ≤ 0.2
SILC | ≤ 0.2

Variant | one-hybrid fitness for binding NBS DNA
RFVH | ≤ 0.2
PDPN | ≤ 0.2
PPCP | ≤ 0.2
RSDY | ≤ 0.2
SHNT | ≤ 0.2
CHPR | ≤ 0.2
HSGP | ≤ 0.2
QRDS | 0.468
GPWS | ≤ 0.2
GQDS | ≤ 0.2
RYEI | ≤ 0.2
VKAS | ≤ 0.2
TKDA | ≤ 0.2
NPTN | ≤ 0.2
RIPD | ≤ 0.2
CWVC | ≤ 0.2
PRYT | ≤ 0.2
HVIG | ≤ 0.2
GNAF | ≤ 0.2
HTLM | ≤ 0.2
ELME | ≤ 0.2
QQKY | 0.63
RQNI | ≤ 0.2
HWTV | ≤ 0.2

Variant | one-hybrid fitness for binding NBS DNA
VSKL | ≤ 0.2
RPPI | ≤ 0.2
SPWC | ≤ 0.2
ASFM | ≤ 0.2
ECAG | ≤ 0.2
YACR | ≤ 0.2
QKLS | 0.392
RVKS | 0.578
RFTG | ≤ 0.2
LALY | ≤ 0.2
WYWI | ≤ 0.2
AMDC | ≤ 0.2
EDSG | ≤ 0.2
DLAF | ≤ 0.2
QVHG | ≤ 0.2
QLNH | 0.242
DMQG | ≤ 0.2
NMCS | ≤ 0.2
RTLE | ≤ 0.2
VLQI | ≤ 0.2
SASN | ≤ 0.2
PLVV | ≤ 0.2
RWNY | ≤ 0.2
EIRS | ≤ 0.2

Variant | one-hybrid fitness for binding NBS DNA
NENC | ≤ 0.2
MYNL | ≤ 0.2
AGYT | ≤ 0.2
KNAR | ≤ 0.2
TLMT | ≤ 0.2
YMWN | ≤ 0.2
QYVF | ≤ 0.2
HDAC | ≤ 0.2
NGAV | ≤ 0.2
GNPG | ≤ 0.2
QQFI | ≤ 0.2
GLVP | ≤ 0.2
RSCD | ≤ 0.2
RARW | ≤ 0.2
VAIA | ≤ 0.2
SVTP | ≤ 0.2
PARC | ≤ 0.2
QSCR | 0.493
EMQR | ≤ 0.2
CYST | ≤ 0.2
ATLN | ≤ 0.2
WIIC | ≤ 0.2
SHQT | ≤ 0.2
PPAI | ≤ 0.2

Variant | one-hybrid fitness for binding NBS DNA
TATQ | ≤ 0.2
CQQR | ≤ 0.2
ADQC | ≤ 0.2
NRYA | ≤ 0.2
CNCY | ≤ 0.2
DPPY | ≤ 0.2
WTWC | ≤ 0.2
FQTK | ≤ 0.2
LDTI | ≤ 0.2
GLFN | ≤ 0.2
ESHK | ≤ 0.2
EING | ≤ 0.2
VVER | ≤ 0.2
PETN | ≤ 0.2
RHYA | ≤ 0.2
LPKA | ≤ 0.2
PEPR | ≤ 0.2
VSET | ≤ 0.2

Reference: a collection of fitness landscapes (doi:10.1016/j.celrep.2020.107928)
